Results reported in ChEMBL document CHEMBL4888484, “Replenishing the malaria drug discovery pipeline: Screening and hit evaluation of the MMV Hit Generation Library 1 (HGL1) against asexual blood stage Plasmodium falciparum ,using a nano luciferase reporter read-out” (2022).
Screen size: about 150,000 compounds; about 540 (0.36%) showed an effect of 50% or more. The list shows a part of the results.

system: Plasmodium falciparum; experiment: Primary screen in NF54 nanoGlo assay, in single point, at 2uM, 72h; a lower Z score goes with more inhibition; format: functional, Erythrocyte; details: timepoint 72 hour

SMILES | % Inhibition [%] | Z score
O=C(NCC1CCN(Cc2ccc(-c3ccccc3Cl)o2)CC1)[C@H]1CCOC1 | -7 | 1.21
Cc1ccc(F)cc1C=Cc1nc2cnccc2c(=O)[nH]1 | -6 | 0.99
CC(C)NC1CCN(C[C@H](O)c2cccc3ccccc23)CC1 | 18 | -2.16
Cc1nnc(CCNc2cc(C(C)C)ncn2)n1C | -39 | 4.57
CNc1nc2c(c(C(=O)N3CCCC3)n1)CN(Cc1ccc(C)s1)CC2 | -15 | 1.69
CCCN1CCN(C(=O)c2cnn(-c3nccc(-c4cccc(OC)c4)n3)c2C2CC2)CC1 | -10 | 1.29
O=S1(=O)CCN(C2CCN(CC(F)(F)F)CC2)CC1 | -3 | 0.36
O=C(C[C@@H](c1cccc(Cl)c1)c1ccccc1O)NCc1ccncc1 | -9 | 1.1
Cc1noc(C)c1CN1C[C@H]2CC[C@@H](C1)N(Cc1ccc3c(c1)OCCO3)C2 | -1 | 0.11
Cc1cnc(NC(=O)c2ccc(OCC(F)F)nc2)[nH]1 | -1 | 0.11
CC1CCC(N2C[C@@H](C(=O)OCC3(C)COC3)CC2=O)CC1 (stereo partly drawn) | -17 | 2.28
CNCc1cccc(Br)c1OCCS(C)(=O)=O | -14 | 1.62
CCN1C(=O)c2c(C(=O)NCc3cccc(F)c3)ncn2C[C@@]1(C)C(=O)NC1CCCC1 | -9 | 1.78
O=C(CN1C(=O)c2cccnc2Oc2ccccc21)N1CCc2ccccc21 | -11 | 1.41
COc1cccc(CC(=O)N2CC(n3ccnc3)C2)c1 | -1 | 0.09
CC(C)(C)c1oc(C(N)=O)cc1CN1CC[C@H]1c1ccc(F)cc1 | -14 | 1.98
CN[C@@H](c1ccc(F)cc1)c1cnccn1 | 0 | -0.03
Cc1nc2ccc(Cl)cc2c(-c2ccccc2)c1C1=NN(C(=O)CCC(=O)O)[C@H](c2ccc(Cl)cc2)C1 | -13 | 2.14
O=C(c1ccccn1)N1CC[C@H](Nc2noc(-c3ccccc3)n2)[C@@H](O)C1 | 5 | -0.71
Cc1ccnc(CNC(=O)c2cncn2C)c1 | -3 | 0.51
O=C(NCc1cncc(O)c1)[C@@H]1CCCC[C@@H]1c1ccccc1 | -16 | 3.12

SMILES | % Inhibition [%] | Z score
Cc1c(NC(=O)c2occ3c2CCOC3)cnn1C | -13 | 1.96
CS(=O)(=O)c1ccc(NC[C@]2(O)CCCc3ccccc32)cc1 | 2 | -0.33
CC1(C)CS(=O)(=O)N(c2cccc(C(=O)N3CCN(Cc4ccccc4)CC3)c2)C1=O | -4 | 0.47
O=C(Nc1ccccc1)N(Cc1cccs1)C1CCCC1 | -5 | 0.69
C[C@H](C(=O)NCc1nccs1)C1CCOCC1 | -7 | 1.01
CN(C)c1ccc(NC(=O)Cn2cnc3ccccc32)cc1 | -13 | 1.73
CCC(=O)Nc1ccc(N(C)C)c(CN(C(=O)C(C)C)[C@@H](C)CC)c1 | -2 | 0.29
CC(=O)c1ccn(-c2cncc3ccccc23)n1 | 1 | -0.08
CCN(CC)C(=O)c1cnn(-c2ncc(C)c(-c3cccs3)n2)c1C1CC1 | -8 | 1.04
CCn1cncc1CNC(=O)N1CCN(Cc2cccc(C)c2)C(=O)[C@@H]1C | 10 | -1.11
O=C(NCc1ccc(-c2ccco2)o1)C(=O)Nc1ccccc1C(F)(F)F | -1 | 0.1
Cc1nc(C)c(C(=O)NCc2ccc3[nH]c(NC(=O)c4sc(C)nc4C)nc3c2)s1 | -35 | 4.1
CC[C@H](C)N(Cc1cccc(OS(=O)(=O)c2cccc(C(F)(F)F)c2)c1)C(=O)C1CCC1 | 0 | 0.02
CNc1nc(C)cc(C(=O)NCC(C)(C)C[C@H](C)O)n1 | -2 | 0.43
CC(=O)N1CCN(Cc2cn3cc(Br)ccc3n2)CC1 | -10 | 1.37
Cc1nc(-c2ccccc2)sc1-c1nc(-c2ccccc2)ncc1S(=O)(=O)c1ccccc1 | 3 | -0.34
O=C(c1cnn(C2CCCCC2)c1)N1CCCC1 | -12 | 1.84
Cc1nn(CC2CC2)c(=O)n1-c1ccc(OCc2ccccc2)cc1 | -7 | 0.82
COC(=O)CN(CC#N)C(=O)CCc1cccc(Cl)c1 | -12 | 1.48
O=C(NCCN1CCN(c2cccc(Cl)c2)CC1)C1CCN(c2nc3cccnc3s2)CC1 | -22 | 1.98
CC(=O)NCCNC(=O)c1cc(NCc2ccc(F)cc2F)cc(S(=O)(=O)Nc2ccccc2C)c1 | -18 | 2.14

SMILES | % Inhibition [%] | Z score
Cc1cnc(C2CC2)n1CCNC(=O)CCC1CCCC1 | -6 | 0.74
CCOC(CCNC(=O)NC(C)c1n[nH]c(=O)n1C)C1CCCC1 (stereo not drawn) | -5 | 0.77
Nc1nnc(CCc2nnc(N)s2)s1 | -25 | 2.66
COc1ccnc(N2CCC[C@H]2c2ccc3c(c2)OCCCO3)n1 | -4 | 0.35
CN(Cc1ncccc1Cl)[C@@H](CC(N)=O)c1ccccc1 | -4 | 0.65
Cc1ccc(S(=O)(=O)Nc2ccc3oc(C)nc3c2)c(C)c1 | 2 | -0.33
COc1ccc(NC(=O)N2CC[C@@H](C(F)(F)F)C(C)(C)C2)c(C)n1 | -7 | 0.91
C[C@](O)(CN1Cc2ccccc2C1=O)C(=O)OCC1CC1 | -3 | 0.31
c1cc(C2(c3noc(C4CCC4)n3)CCC2)ccn1 | 1 | -0.18
O=C(Nc1ccc(Cl)c(N2CCCS2(=O)=O)c1)c1ccc(F)c(F)c1 | -6 | 0.61
CCC[C@H]1CN(c2cc(C)nc(N)n2)C[C@@H]1NC(=O)C1CCOCC1 | 12 | -1.53
Cc1nc(CN(C)C(=O)c2ccccc2Nc2cccc(C)c2C)cs1 | 37 | -4.96
COC(=O)N1CCC(NCC2(c3cccc(C)c3)CCCC2)CC1 | 0 | -0.02
CCN1C(=O)Cc2cc(NC(=O)c3ccc(Br)o3)ccc21 | 35 | -1.1
Cc1cnn(CCNC(C)C(=O)NCC2COc3ccccc3O2)c1 (stereo not drawn) | -2 | 0.29
O=C(NC1CCCC(OC(F)F)C1)c1cnnc2ccccc12 (stereo not drawn) | 11 | -1.35
CC(C)N1C(=O)[C@@]2(CC(=O)Nc3c2c(=O)[nH]n3C(C)C)c2cc(Cl)ccc21 | -5 | 0.57
COc1cccc(N(C(=O)[C@H]2CCCO2)c2ccccc2)c1 | -3 | 0.56
CS(=O)(=O)N1CCC[C@@H]1CNC(=O)N1CCC(C(F)F)CC1 | -19 | 1.72
CO[C@H]1CC[C@H](NC(=O)[C@H](O)c2ccc(F)cc2)CC1 | -16 | 3.12
COc1cccc(-c2nc(-c3ccc(C)cc3)c(NC(=O)c3ccco3)s2)c1 | -15 | 2.73

SMILES | % Inhibition [%] | Z score
Cc1nccn1CCCNC1(c2ccccc2)CCC1 | 1 | -0.16
CCC[C@H]1CN(C(=O)c2ccn(C(F)F)n2)C[C@@H]1N | -7 | 1.04
C=CCOc1ccccc1CN[C@H]1C[C@@H](C(=O)NCc2cccnc2)N(C/C=C/c2ccccc2)C1 | 5 | -0.6
CNC(=O)NC1CCN(c2nc3cccnc3n(Cc3ccccc3)c2=O)CC1 | -16 | 2.39
O=C(c1c(-c2ccccc2)c(-c2ccccc2)n[nH]c1=O)N1CCCCC1 | 0 | 0.05
COc1ccnc(N2CC[S+]([O-])CC2)n1 | -1 | 0.12
C[C@H]1COCCN1CCn1cnc2ccccc2c1=O | -8 | 1.28
O=C(Cc1ccc(F)cc1Br)N1CCn2ccnc2C1 | -5 | 0.45
CC1(C)NC(=O)N(Cc2cc(-c3ccc(Cl)cc3)no2)C1=O | -11 | 1.54
CCN(CCO)c1ncc(F)c(-c2ccsc2)n1 | 0 | 0.01
CCC(CC)CS(=O)(=O)N1CCCCC[C@@H]1CC | -3 | 0.39
Cc1cnc(C2CCN(C(=O)c3cccs3)CC2)n1[C@H](C)CO | -6 | 1.09
Cc1cc(Cl)cc2c1NC(=O)C21NC(Cc2c[nH]c3ccccc23)[C@H]2C(=O)N(Cc3ccccc3)C(=O)[C@H]21 (stereo partly drawn) | -12 | 1.58
COc1c(CN[C@@H](C(=O)N2CCCC2)c2ccccc2)c(C)nn1C | -14 | 2.76
Cc1ccc(F)c(C(=O)N[C@H]2CCOC[C@@H]2OCC2CC2)c1Cl | -7 | 1.27
O=C(c1cccc(N2CCCC2=O)c1)N1CCc2ccccc2C1 | -15 | 1.32
O=C1CN(C(=O)NC2CC3CC3C2)CN1CCC(F)(F)F (stereo not drawn) | -1 | 0.12
CC(C)(C)c1ccnc(NC(=O)N[C@@H](CO)C(C)(C)C)n1 | -6 | 0.93
CCC1(CC)C(OC)CC1N(C)c1nnc(C(F)F)o1 (stereo not drawn) | -3 | 0.63
Cc1ccc(-c2nnc(N3CCC(C(=O)NCc4ccc(F)c(Cl)c4)CC3)o2)cc1 | -9 | 1.42
CN(C(=O)C1=CC(c2ccc3c(c2)OCO3)=NS(=O)(=O)N1C)c1ccccc1 | -9 | 1.72
